According to PMC5849085 (Immunity, 2017):

Assays:
[1] = target: T1, human IL-1RAcP (residues 1-350) (human, UniProt Q9NPH3 21-350); assay: HDX-MS
T1 sequence (looked up): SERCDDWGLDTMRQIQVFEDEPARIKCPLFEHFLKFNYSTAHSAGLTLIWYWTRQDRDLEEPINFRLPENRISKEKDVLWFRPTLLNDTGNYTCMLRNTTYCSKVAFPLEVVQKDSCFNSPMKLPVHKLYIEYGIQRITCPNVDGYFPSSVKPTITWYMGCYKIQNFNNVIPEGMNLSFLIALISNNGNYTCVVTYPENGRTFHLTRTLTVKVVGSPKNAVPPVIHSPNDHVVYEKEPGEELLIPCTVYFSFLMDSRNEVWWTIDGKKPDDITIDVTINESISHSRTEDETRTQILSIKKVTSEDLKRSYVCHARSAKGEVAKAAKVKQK

[2] = target: T2, human IL-1RAcP (residues 1-350) fused to human IgG1-Fc (human, UniProt Q9NPH3 21-350); assay: SPR
T2 sequence (looked up): T1 sequence (looked up)

half-life of the ternary complex (EX1 kinetics of IL-1RAcP(150-156)) [1]: > 30 min | half-life of the ternary complex [2]: 43 min
B1: human IL-1β:IL-1RI binary complex (complex)
chain 1: [… about 150 residues …]
chain 2: LEADKCKEREEKIILVSSANEIDVRPCPLNPNEHKGTITWYKDDSKTPVSTEQASRIHQHKEKLWFVPAKVEDSGHYYCVVRNSSYCLRIKISAKFVENEPNLCYNAQAIFKQKLPVAGDGGLVCPYMEFFKNENNELPKLQWYKDCKPLLLDNIHFSGVKDRLIVMNVAEKHRGNYTCHASYTYLGKQYPITRVIEFITLEENKPTRPVIVSPANETMEVDLGSQIQLICNVTGQLSDIAYWKWNGSVIDEDDPVLGEDYYSVENPANKRRSTLITVLNISEIESRFYKHPFTCFAKNTHGIDAAYIQLIYPVTNFQK
